# Assay results published in article PMC6212790.
# Some of the results follow. At the low end of the ranking the order means little.
# Biological target: T1, GST-Rok (full length) (UniProt O34857)
# T1 sequence: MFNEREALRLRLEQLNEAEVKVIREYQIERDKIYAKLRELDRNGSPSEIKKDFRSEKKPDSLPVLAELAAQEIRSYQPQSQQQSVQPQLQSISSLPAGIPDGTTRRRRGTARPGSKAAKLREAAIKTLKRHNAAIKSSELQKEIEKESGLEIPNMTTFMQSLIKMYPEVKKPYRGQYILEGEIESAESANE
# Experiment: protein binding microarray;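 also: rank score from −0.5 (least bound) to 0.5 (best bound)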
# Details: Rok is a gene silencer of Bacillus subtilis; high values mean tight binding; most listed sequences are background and not binding sites; double strand, one strand shown
row,Sequence,binding signal [E-score]
1,CAGTGTGA,-0.0699
2,AAGCATTC,-0.0228
3,CGATTGAG,-0.101
4,CAACGGGA,0.123
5,AGAGGTCG,-0.15
6,TACATGTA,0.339
7,CTTTGATA,0.204
8,GGCCGCAC,-0.38
9,TGGCTCAA,-0.0301
10,AAATTACC,0.347
11,AATGTGTG,0.109
12,CTTGAGCA,-0.235
13,ATCTATCC,0.128
14,ATTCCGTA,0.309
15,CCGCGTTA,-0.126
16,GTCTTTAA,-0.0393
17,AGGGTGTG,-0.159
18,CTCCGAGA,-0.1
19,AGTCCTCG,-0.106
20,CCGCCTAA,-0.174
21,ACTTCCCC,-0.134
22,ATACTTAG,0.18
23,AAACCTGT,0.0297
24,CCCCATCA,-0.243
25,TTCATGAA,-0.0905

row,Sequence,binding signal [E-score]
1,GACGCAGC,-0.273
2,CATGTCAG,0.061
3,CAGTATGG,-0.0566
4,CAAAAAAG,-0.124
5,TATTGCCA,0.196
6,CATTCGAG,-0.109
7,CTATCAAG,0.126
8,ATCTTACG,0.21
9,ATTTCGCA,0.252
10,CGAAGTGC,-0.268
11,AGAATACG,0.0996
12,CCTGCAAA,-0.218
13,CGTAACTC,-0.000639
14,CCGGTCTC,-0.121
15,AAGAATAT,0.173
16,GGTCGCAA,0.0661
17,AAATCCAT,0.193
18,ATAACTTG,0.289
19,CCGACCTC,-0.334
20,CGAAATTA,0.269
21,CGGGGGAG,-0.407
22,CATAGCAC,-0.15
23,ACTATAAC,0.214
24,AATAATGT,0.222
25,CTAAAATC,0.289

row,Sequence,binding signal [E-score]
1,TTCGCCAA,0.0471
2,GCGTTGCC,-0.301
3,GATTGCGA,0.0724
4,CTGAGGCA,-0.19
5,TATTACCA,0.232
6,GATTTGAC,-0.0537
7,AGTGGGCA,-0.0765
8,GCTGAACA,-0.00235
9,CAAAGCCA,-0.294
10,CCATGGTC,-0.19
11,GATCTTCC,-0.105
12,AGAGTGTC,-0.116
13,GGTTTGTA,0.217
14,CGAGGCAG,-0.166
15,CCCTAGGA,-0.299
16,GGCTATAC,0.027
17,GTAAATAC,0.352
18,GCGAAACA,-0.073
19,CACTCCTG,-0.271
20,ATTCATTG,0.186
21,GGTGCCGA,-0.248
22,ACATGGAC,-0.0136
23,AACTGTCC,0.0205
24,AGAGCCTA,-0.00183
25,ACAACACT,0.144

row,Sequence,binding signal [E-score]
1,GCCGGATA,0.0651
2,GTAGAGTA,0.227
3,CTTGCAAG,-0.0195
4,ATTCTCCA,0.209
5,ATATTCGG,-0.00515
6,GCCGACCA,-0.178
7,ATGACTCG,0.00282
8,ATCTCCTC,-0.0375
9,CGCCCAAA,-0.124
10,GGGCATTA,-0.3
11,ACACGGGC,-0.0912
12,GCCTGCGA,-0.168
13,GGGCGGCA,-0.295
14,GAAGCTAA,0.0533
15,ACCATGCG,-0.0629
16,AGAGGCTG,-0.273
17,CATGATAC,0.144
18,GCGTAGGA,-0.034
19,CCTTTTCG,0.147
20,CAAACTCG,-0.0411
21,ATTTATCA,0.193
22,GGATGTCA,-0.148
23,GGTGGCTA,0.00926
24,CGGCCATA,0.0118
25,AACCGGGA,-0.296

row,Sequence,binding signal [E-score]
1,CTTGTGGC,-0.0517
2,GATTCGTA,0.0981
3,ATGGGGAG,-0.359
4,CTATGGGA,-0.103
5,AGCCTTTA,-0.0665
6,GCGTTGGA,-0.179
7,CACATGTA,0.284
8,AAGAGACC,-0.105
9,ATTTGCAA,0.0712
10,GTTTTCAA,0.0595
11,ACGTCCCG,-0.0683
12,GGTAAAAC,0.192
13,CACGTAAC,0.131
14,AGAGTTTC,-0.0683
15,TGGATTAA,0.116
16,CCCTGTCA,-0.175
17,GAGGTGAA,-0.212
18,CGGCGTCC,-0.181
19,ACGAGGCG,-0.125
20,ACGCGCGA,0.0153
21,CCCGTAGG,-0.304
22,AACCCGGG,-0.226
23,AAACAGCT,0.0473
24,ATGAAAAA,-0.185
25,CCCCGGGA,-0.318

row,Sequence,binding signal [E-score]
1,GGGCAGGA,-0.31
2,ACTTGGGG,-0.063
3,ACATTCCC,-0.038
4,AAGCCTGG,-0.233
5,CAAGCAGC,-0.0674
6,AGACAAAT,0.0067
7,GGCACAAC,-0.164
8,GGACCACA,-0.0732
9,AAAGGCAT,0.00646
10,GCTCTCCC,-0.192
11,ATGTCACA,0.0735
12,ATTAATCG,0.129
13,ACGTATAG,0.146
14,CTCCAATC,-0.0649
15,ACTTATGA,0.126
16,AATTTAGA,0.155
17,ACGTTCAT,-0.0328
18,GCCCACCC,-0.272
19,CAGGGTAG,-0.0145
20,ATCAAGAT,0.182
21,AGGCAAGA,-0.274
22,AGATTCCG,0.188
23,ACGATGAT,0.0193
24,ACGAATTC,0.137
25,AAGTTTAC,-0.0932

row,Sequence,binding signal [E-score]
1,ACGATGAA,0.0343
2,CAATCGTC,0.0329
3,GACATGCC,0.114
4,AAAGTTAC,0.143
5,AACTGTAA,0.15
6,CCGCCAAA,-0.222
7,CCGTTCAG,-0.0823
8,ACTCCCTC,-0.241
9,CGATGACG,-0.152
10,CTGGGACC,-0.294
11,CCACACAA,-0.06
12,CGCGAGTC,0.0206
13,ACACATCA,-0.138
14,CTTCGTAC,0.152
15,CGGACCAG,-0.111
16,AACCAAGA,-0.028
17,ATACTGCG,0.0629
18,GGTGCGCA,-0.00866
19,CATAGGGG,-0.27
20,CGTGCTGC,-0.148
21,ATCAGAGC,-0.105
22,CGGACTAA,0.0922
23,CCCGACTC,-0.213
24,GTCAGCCA,-0.148
25,CTAACTCA,0.181

row,Sequence,binding signal [E-score]
1,TATTAACA,0.283
2,AAGGGTTC,-0.306
3,AACCAAAG,-0.0704
4,AAAGCAGA,0.0688
5,AAAAAGGG,-0.249
6,GTGGTAAA,0.192
7,CCACCGTA,0.00802
8,ACACCCAA,-0.106
9,ACAACGCG,0.0629
10,AAGGGAAG,-0.223
11,CAACATCC,0.131
12,GGCCCCTA,-0.414
13,AAATTTGT,0.235
14,AGGCTTGA,-0.216
15,TACCATCA,0.128
16,CCAAATTC,-0.141
17,CGCATATC,0.131
18,ATATGGGA,0.0879
19,CAGCGAGC,-0.234
20,GCGCAAAA,-0.0246
21,AGATATCC,-0.0591
22,CGCTAAAC,0.118
23,TATAATCA,0.257
24,AAATGACA,-0.0146
25,GTAAGCCA,0.0338

row,Sequence,binding signal [E-score]
1,GTGATCCA,0.00987
2,CCAGTTCC,-0.263
3,AGCCCAAA,-0.17
4,AGGGGTCA,-0.223
5,ACGTTCTC,0.0202
6,GACGATCA,-0.189
7,GAAGGTCA,-0.045
8,AATGTATA,0.388
9,AGCATACC,0.0206
10,TTATTCAA,-0.176
11,TCGCCCAA,-0.202
12,CGTGCAAG,-0.124
13,CGTCGGAA,-0.00391
14,ACGTAAGT,-0.0971
15,CAATAAGG,-0.1
16,CCAACTAG,0.0738
17,ATTGTTGG,-0.0396
18,CAAGATAA,0.0746
19,CTAGACCA,-0.172
20,ACCGCAAA,0.0214
21,ACATCAAG,0.00272
22,CCGAGTCA,-0.159
23,AACCTGTG,-0.123
24,GAAACGCA,-0.154
25,AGTGAGTA,0.0952

row,Sequence,binding signal [E-score]
1,ACAGCGGT,-0.174
2,ATTCATGG,0.0276
3,AAGGTCAG,-0.0568
4,GCGCTTAC,-0.113
5,ACCCTCAT,0.00761
6,AGCTGCCG,-0.245
7,CCTGCTAG,-0.219
8,CATGCGCA,-0.235
9,ATCCTACG,-0.0168
10,CTTCAAAG,-0.242
11,GCAACAAA,0.153
12,TAGACACA,0.018
13,CTTTTCAA,-0.159
14,AAAGGTGC,-0.136
15,AAAACCGC,-0.232
16,GGGTGACA,-0.236
17,GGATCGTA,0.0948
18,AATTCGTC,0.17
19,CCTATCCG,-0.256
20,CAACTGGG,-0.201
21,AACGAATG,0.106
22,AGTAAGGG,-0.227
23,CAGTCACA,-0.0227
24,CCAACGTA,0.045
25,ATATAAAA,0.288

row,Sequence,binding signal [E-score]
1,ATACAAGC,0.163
2,GCAGATGA,-0.0924
3,ACTGGAGA,-0.0659
4,AAGGTCTG,-0.177
5,CTTAAGCC,-0.275
6,CTCACAGA,-0.131
7,CCAACGAG,-0.125
8,ACAGAGAG,-0.123
9,GCGCCATA,-0.034
10,AATGCGCG,0.145
11,CGCACCAC,-0.117
12,CCATGCGA,-0.186
13,GTAAATGA,0.0501
14,ACCTTTGG,-0.212
15,ACACCCGC,-0.169
16,CGACAGAC,-0.0568
17,CTCCGTTC,-0.0616
18,CGGTGGAC,-0.199
19,CAGCAATC,0.037
20,CGTACGTA,0.148
21,GCCTGCCC,-0.341
22,GCATGTCA,-0.0408
23,CCTGAAGA,-0.0739
24,GCCTCAGC,-0.283
25,ACAGATTC,0.15

row,Sequence,binding signal [E-score]
1,CAATCGCG,0.0351
2,AAGGGCCC,-0.428
3,CAACGTTG,0.174
4,CAATAAAG,0.029
5,AGGATTAG,0.158
6,ATACGGTG,0.0458
7,CCCCGGCC,-0.345
8,TGGCACCA,0.0347
9,CTCACACC,-0.0119
10,CGATTCAC,-0.012
11,AAAGTTAA,-0.107
12,GGAGCGAC,-0.265
13,TCCCGTAA,0.154
14,ATATTGCC,0.0852
15,ACAGTTCC,-0.0713
16,GCTTGACA,-0.211
17,AGAATTTA,0.26
18,CAGTAGAG,0.142
19,CTAATGGA,0.12
20,CTTAATTA,0.21
21,ATTCTGTG,0.219
22,ACCACCGG,-0.176
23,ACATTATA,0.325
24,CTTGTCCA,-0.152
25,CCTTACGA,-0.0248

row,Sequence,binding signal [E-score]
1,CCGGCCGA,-0.105
2,GAGGCTGC,-0.367
3,ATACGCCG,-0.0298
4,CGGGTGTC,-0.11
5,CTATCCAG,0.12
6,ACGTCTCA,-0.157
7,AGTTGCGC,-0.0122
8,CTCGTCTC,-0.0848
9,ACTCTCCG,-0.144
10,CAATGCCA,-0.106
11,CTAGTTGA,0.226
12,TTCGTCAA,-0.0914
13,GAGCACGA,-0.315
14,CCCAAGAA,-0.178
15,TAAAGTAA,0.15
16,AGTATGCC,0.0544
17,AATACGAG,0.0931
18,CCTAAAGA,-0.0275
19,ACAAACAG,0.0829
20,CGTCGTTC,-0.0713
21,ACGTCTAG,0.115
22,GCGATAAC,0.0793
23,TCAGGGGA,-0.229
24,GCCTACAA,0.107
25,CTTCGTCA,-0.188

row,Sequence,binding signal [E-score]
1,GGGCCTGA,-0.45
2,GTAGCTTA,0.191
3,CCTGCGCC,-0.204
4,GGAATTCC,-0.149
5,AGTAGTAC,0.336
6,GGGATAAC,-0.0138
7,GGTGAGGA,-0.18
8,GACGTGCA,0.00485
9,CCTTAAAA,-0.117
10,AAATATAG,0.317
11,ACGTCACT,0.101
12,ATAAATTG,0.336
13,CCGTACCA,-0.11
14,CGTACCTA,0.141
15,AGACACGA,-0.179
16,GGCGATGA,-0.211
17,CGGATGCA,-0.166
18,ATGGTTCA,-0.188
19,ATACGTGA,0.134
